# Where a chain is given by its changes, count along the chain named. The list shows a part of the results.
# T1: RBFOX1 RRM (Homo sapiens, UniProt Q9NWB1 109-208)
# T1 sequence: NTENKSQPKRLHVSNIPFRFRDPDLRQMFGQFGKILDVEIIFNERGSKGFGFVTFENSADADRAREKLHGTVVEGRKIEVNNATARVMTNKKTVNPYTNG
# B1: AUUACAC (DNA:RNA)
# RNA: GGGAGACCGGAAUUCAGAUUGUCCAUUACACUUAAAUCCCGUCGUAGCCACCA
# DNA 1: CAATCTGAATTCCGGTCTCCC
# DNA 2: TGGTGGCTACGACGGGATT
# B2: GUUGGCA (DNA:RNA)
# RNA: B1 RNA with A25G, A28G, C29G, A30C, C31A
# DNA 1: CAATCTGAATTCCGGTCTCCC
# DNA 2: TGGTGGCTACGACGGGATT
# B3: AACGCCC (DNA:RNA)
# RNA: B1 RNA with U26A, U27C, A28G, A30C
# DNA 1: CAATCTGAATTCCGGTCTCCC
# DNA 2: TGGTGGCTACGACGGGATT
# B4: AGUUACG (DNA:RNA)
# RNA: B1 RNA with U26G, A28U, C29A, A30C, C31G
# DNA 1: CAATCTGAATTCCGGTCTCCC
# DNA 2: TGGTGGCTACGACGGGATT
# B5: CUUGGUC (DNA:RNA)
# RNA: B1 RNA with A25C, A28G, C29G, A30U
# DNA 1: CAATCTGAATTCCGGTCTCCC
# DNA 2: TGGTGGCTACGACGGGATT
# B6: GCUUGUC (DNA:RNA)
# RNA: B1 RNA with A25G, U26C, A28U, C29G, A30U
# DNA 1: CAATCTGAATTCCGGTCTCCC
# DNA 2: TGGTGGCTACGACGGGATT
# B7: GUGCCGG (DNA:RNA)
# RNA: B1 RNA with A25G, U27G, A28C, A30G, C31G
# DNA 1: CAATCTGAATTCCGGTCTCCC
# DNA 2: TGGTGGCTACGACGGGATT
# B8: UCAGAAU (DNA:RNA)
# RNA: B1 RNA with A25U, U26C, U27A, A28G, C29A, C31U
# DNA 1: CAATCTGAATTCCGGTCTCCC
# DNA 2: TGGTGGCTACGACGGGATT
# B9: GCCUUAC (DNA:RNA)
# RNA: B1 RNA with A25G, U26C, U27C, A28U, C29U
# DNA 1: CAATCTGAATTCCGGTCTCCC
# DNA 2: TGGTGGCTACGACGGGATT
# B10: CUCCUGA (DNA:RNA)
# RNA: B1 RNA with A25C, U27C, A28C, C29U, A30G, C31A
# DNA 1: CAATCTGAATTCCGGTCTCCC
# DNA 2: TGGTGGCTACGACGGGATT
# B11: UGCGGCC (DNA:RNA)
# RNA: B1 RNA with A25U, U26G, U27C, A28G, C29G, A30C
# DNA 1: CAATCTGAATTCCGGTCTCCC
# DNA 2: TGGTGGCTACGACGGGATT
# B12: AAACAAG (DNA:RNA)
# RNA: B1 RNA with U26A, U27A, A28C, C29A, C31G
# DNA 1: CAATCTGAATTCCGGTCTCCC
# DNA 2: TGGTGGCTACGACGGGATT
# B13: GGCAAGG (DNA:RNA)
# RNA: B1 RNA with A25G, U26G, U27C, C29A, A30G, C31G
# DNA 1: CAATCTGAATTCCGGTCTCCC
# DNA 2: TGGTGGCTACGACGGGATT
# B14: UGCUCUU (DNA:RNA)
# RNA: B1 RNA with A25U, U26G, U27C, A28U, A30U, C31U
# DNA 1: CAATCTGAATTCCGGTCTCCC
# DNA 2: TGGTGGCTACGACGGGATT
# B15: UCUACUA (DNA:RNA)
# RNA: B1 RNA with A25U, U26C, A30U, C31A
# DNA 1: CAATCTGAATTCCGGTCTCCC
# DNA 2: TGGTGGCTACGACGGGATT
# B16: AAUUAAC (DNA:RNA)
# RNA: B1 RNA with U26A, A28U, C29A
# DNA 1: CAATCTGAATTCCGGTCTCCC
# DNA 2: TGGTGGCTACGACGGGATT
# B17: GGCUAAA (DNA:RNA)
# RNA: B1 RNA with A25G, U26G, U27C, A28U, C29A, C31A
# DNA 1: CAATCTGAATTCCGGTCTCCC
# DNA 2: TGGTGGCTACGACGGGATT
# B18: CCAAGCC (DNA:RNA)
# RNA: B1 RNA with A25C, U26C, U27A, C29G, A30C
# DNA 1: CAATCTGAATTCCGGTCTCCC
# DNA 2: TGGTGGCTACGACGGGATT
# B19: UAAGGAU (DNA:RNA)
# RNA: B1 RNA with A25U, U26A, U27A, A28G, C29G, C31U
# DNA 1: CAATCTGAATTCCGGTCTCCC
# DNA 2: TGGTGGCTACGACGGGATT
# B20: GAAUGAA (DNA:RNA)
# RNA: B1 RNA with A25G, U26A, U27A, A28U, C29G, C31A
# DNA 1: CAATCTGAATTCCGGTCTCCC
# DNA 2: TGGTGGCTACGACGGGATT
# Molecular target: T1, RBFOX1 RRM
# Assay: EMSA; HiTS-Eq, 1 nM pool, 10 min; buffer printed only for the single-RNA assays: 10 mM Tris pH 7.5, 150 mM NaCl, 3.4 mM EDTA, 0.001% NP-40, 30 C
# Details: tags: His6 N-terminal (pET28a); label: 5' 32P
# Method in brief: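 Purified RbFox RRM (wild type or mutant) was equilibrated for 10 min in 50 µL with 1 nM of a 5′-radiolabelled pool of RNA with 7 randomized nucleotides, its flanks annealed to DNA oligonucleotides, across increasing protein concentrations. Free RNA was separated by 8% native PAGE, excised, reverse-transcribed, PCR-barcoded and sequenced on an Illumina HiSeq 2500. Relative association constants came from read-count changes of each variant against the control reaction, normalised to the cognate motif.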
row,Binder,binding signal
1,B1,0.00181 KA relative to UGCAUGU
2,B2,0.024 KA relative to UGCAUGU
3,B3,0.00394 KA relative to UGCAUGU
4,B4,0.00991 KA relative to UGCAUGU
5,B5,0.0198 KA relative to UGCAUGU
6,B6,0.0386 KA relative to UGCAUGU
7,B7,0.0127 KA relative to UGCAUGU
8,B8,0.00617 KA relative to UGCAUGU
9,B9,0.00923 KA relative to UGCAUGU
10,B10,0.014 KA relative to UGCAUGU
11,B11,0.0274 KA relative to UGCAUGU
12,B12,0.000969 KA relative to UGCAUGU
13,B13,0.0129 KA relative to UGCAUGU
14,B14,0.0146 KA relative to UGCAUGU
15,B15,0.00365 KA relative to UGCAUGU
16,B16,0.0029 KA relative to UGCAUGU
17,B17,0.003 KA relative to UGCAUGU
18,B18,0.00133 KA relative to UGCAUGU
19,B19,0.00587 KA relative to UGCAUGU
20,B20,0.0162 KA relative to UGCAUGU

# From publication PMC9911399, “Two distinct binding modes provide the RNA-binding protein RbFox with extraordinary sequence specificity”
